Reference: PubChem BioAssay AID504332 (National Center for Advancing Translational Sciences (NCATS), 2011)
Values joined by “and” are separate entries in the source; they are usually repeats but may differ in a detail not shown here. Equal values may be shown once. Screen size: about 350,000 compounds; about 31,000 (8.9%) were called active. The shares of active, inactive and inconclusive entries below differ from those in the screen. The call rests on the fitted dose curve; in most records, active means well fitted inhibition curve with a large enough effect; inconclusive means small, poorly fitted or top-dose-only effect; inactive means no such curve, though single readings can be large or run the other way. Where the call is inconclusive, the potency comes from a doubtful curve fit.

Each molecule was assayed against Histone-lysine N-methyltransferase EHMT2 (Homo sapiens) (UniProt Q96KQ7) (assay: qHTS Assay for Inhibitors of Histone Lysine Methyltransferase G9a). Settings: G9a H3K9 monomethylation, AlphaScreen, 2 h; activity, negative = inhibition: at 59 µM (top of the series) unless noted.
Summary of the method: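 G9a (20 nM) preincubated 15 min RT with compounds, then 500 nM biotinylated H3K9 peptide and 20 uM SAM added; 2 h RT reaction. Monomethyl-H3K9 product detected by AlphaScreen with anti-H3K9me1 antibody, streptavidin donor and anti-rabbit IgG acceptor beads.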
Further: nearly all actives have a fitted effect of over 75% in size.
On the % scale 0 is the no-effect control and ±100 the full control effect; potency means the concentration at half of the fitted maximal effect; tags describe the fitted curve by direction and shape.

Sequence of UniProt Q96KQ7 (Q96KQ7 whole entry, looked up): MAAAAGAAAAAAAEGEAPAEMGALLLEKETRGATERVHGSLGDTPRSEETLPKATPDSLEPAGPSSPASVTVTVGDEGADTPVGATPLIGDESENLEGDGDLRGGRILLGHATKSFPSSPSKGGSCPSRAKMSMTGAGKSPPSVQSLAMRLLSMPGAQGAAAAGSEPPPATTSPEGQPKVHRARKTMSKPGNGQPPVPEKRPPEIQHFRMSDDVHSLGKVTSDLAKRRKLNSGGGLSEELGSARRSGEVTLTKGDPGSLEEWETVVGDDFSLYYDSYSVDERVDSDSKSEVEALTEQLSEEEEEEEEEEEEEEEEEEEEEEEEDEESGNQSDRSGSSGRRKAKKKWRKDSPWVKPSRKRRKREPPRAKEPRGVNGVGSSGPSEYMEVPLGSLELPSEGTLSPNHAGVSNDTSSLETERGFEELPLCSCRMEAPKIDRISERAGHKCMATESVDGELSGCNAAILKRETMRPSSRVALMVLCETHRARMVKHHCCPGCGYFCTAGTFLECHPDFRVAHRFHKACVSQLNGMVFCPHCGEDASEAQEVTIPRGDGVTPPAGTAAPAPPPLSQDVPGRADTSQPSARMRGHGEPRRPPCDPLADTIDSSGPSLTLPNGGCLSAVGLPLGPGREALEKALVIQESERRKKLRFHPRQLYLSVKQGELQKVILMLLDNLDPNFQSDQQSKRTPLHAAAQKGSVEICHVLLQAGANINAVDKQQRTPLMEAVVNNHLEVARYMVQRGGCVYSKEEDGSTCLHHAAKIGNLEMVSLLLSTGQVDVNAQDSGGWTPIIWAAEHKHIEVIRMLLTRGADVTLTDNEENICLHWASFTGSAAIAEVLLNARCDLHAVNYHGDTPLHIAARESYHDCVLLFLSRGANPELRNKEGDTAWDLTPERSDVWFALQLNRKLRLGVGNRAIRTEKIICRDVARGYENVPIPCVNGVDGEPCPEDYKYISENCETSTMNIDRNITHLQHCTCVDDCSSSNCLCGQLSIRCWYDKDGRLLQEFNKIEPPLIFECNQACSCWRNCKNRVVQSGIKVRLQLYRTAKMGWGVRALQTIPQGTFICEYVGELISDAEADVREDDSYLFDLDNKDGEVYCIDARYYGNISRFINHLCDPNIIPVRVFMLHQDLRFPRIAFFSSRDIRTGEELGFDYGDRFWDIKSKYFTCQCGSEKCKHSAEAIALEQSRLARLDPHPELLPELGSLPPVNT

Row | Compound | Potency | activity, negative = inhibition
1 | O=C(O)c1cc([N+](=O)[O-])cc2c1C=Cc1ccccc1O2 | inconclusive: 89.1 µM [inhibitor, single point] | –
2 | CC(/C=N/NC(=O)c1sc(N)nc1C)=C\c1ccccc1 | – | inactive: 3.79% [at 102 µM]
3 | Cc1cc(NC(=O)CN2CCCCC2)no1 | – | inconclusive: -91.1% [inhibitor] [at 12.7 µM]
4 | COc1ccc(N2CC(C(=O)N[C@@H](C)C(=O)NCc3ccccc3OC)CC2=O)cc1 (some centres undefined) | inconclusive: 44.7 µM [inhibitor, partial curve, poor fit] | –
5 | CC/C(=C(/c1ccccc1)c1ccc(OCCN(C)C)cc1)c1ccccc1 | active: 22.4 µM | –
6 | O=C(COc1ccccc1)Nc1ccncc1Cl | – | inactive: 57.6% [at 102 µM]
7 | Cc1cc(OCCN2CCCC2)cc(C(C)C)c1 | active: 11.2 µM | –
8 | COc1ccc(OC)c(C(c2nnnn2C(C)(C)C)N2CCc3ccccc3C2)c1 (centres undefined) | active: 50.1 µM | –
9 | COc1cccc(Cn2nnc(C(=O)Nc3cc(C)ccc3C)c2N)c1 | – | inactive: 10.6%
10 | CC(C)COc1ccc(N)cc1OCC(C)C | inconclusive: 10 µM [inhibitor, partial curve, poor fit] | –
11 | CC(C)CS(=O)(=O)c1oc(-c2ccc(F)cc2)nc1S(=O)(=O)c1ccccc1 | inconclusive: 1.41 µM [inhibitor, full curve, poor fit] | –
12 | Nc1nc(SCC(=O)NCCCN2CCOCC2)nc2sc3c(c12)CCC3 | – | inconclusive: -71.2% [inhibitor]
13 | CC(=O)N(c1nc(CCl)cs1)c1cccc(C)c1C | inconclusive: 56.2 µM [inhibitor, partial curve] | –
14 | Cc1nc(N[C@@H](Cc2c[nH]c3ccccc23)C(=O)O)c2oc3ccccc3c2n1 | active: 5.62 µM | –
15 | O=C(N/N=C/c1ccccn1)c1ccco1 | inconclusive: 0.398 µM [inhibitor, full curve, poor fit] | –
16 | O=C(O)c1ccc(/C=N/Nc2nnnn2-c2ccccc2)cc1 | – | inactive: 14.5%
17 | O=C(N/N=C/c1sc(=O)n(-c2ccccc2)c1Cl)c1ccncc1 | active: 50.1 µM | –
18 | CN(C(=O)C1CCN(S(=O)(=O)c2cccs2)CC1)C1CCCCC1 | – | inactive: -5.84% [at 102 µM]
19 | c1ccc(-n2ncc3c2ncn2nc(-c4ccco4)nc32)cc1 | inconclusive: 50.1 µM [inhibitor, partial curve, poor fit] | –
20 | O=C(CCc1nc(-c2cccs2)no1)Nc1ccccc1[N+](=O)[O-] | inconclusive: 28.2 µM [inhibitor, partial curve, poor fit] | –
21 | O=C(NC1CC(=O)N(c2cccc(F)c2)C1)c1ccc(S(=O)(=O)N2CCCC2)cc1 (centres undefined) | – | inactive: 9.43%
22 | COCCCN1C(=O)C(O)=C(C(=O)c2ccco2)C1c1ccc(Br)cc1 (centres undefined) | – | inconclusive: -87.1% [inhibitor]
23 | COc1ccc(C(=O)/C=C(\C)NCc2ccc3c(c2)OCO3)cc1 | inconclusive: 89.1 µM [inhibitor, single point] | –

Row | Compound | Potency | activity, negative = inhibition
24 | COc1ccc(N2CCN(C(=O)COC(=O)CCOc3ccc(C(C)(C)C)cc3)CC2)cc1 | – | inactive: -42.3% [at 102 µM]
25 | O=C(COc1coc(CN2CCN(c3ccc(F)cc3)CC2)cc1=O)NCC1CCCO1 (centres undefined) | inconclusive: 89.1 µM [inhibitor, partial curve, poor fit] | –
26 | CCOc1ccccc1CNC(=O)Cn1c(-c2ccccc2)cc(C(C)=O)c1C | – | inactive: 1.49%
27 | CCc1c(C(=O)NNC(=S)NCCc2ccccc2)csc1C | – | inactive: 0.662%
28 | COc1ccc(C)cc1Nc1nc(N)c2ccccc2n1 | inconclusive: 79.4 µM [inhibitor, single point] | –
29 | CC(C)c1ccc(-c2nnc(SCC(=O)NC3CC3)n2C)cc1 | – | inactive: 27.5% [at 102 µM]
30 | CC1(C)CC(=O)C(C=Nc2cccnc2/N=C/C2=C(O)CC(C)(C)CC2=O)=C(O)C1 | inconclusive: 50.1 µM [inhibitor, partial curve] | –
31 | COc1cccc(OCc2cc(C(=O)N3CCNC(=O)C3Cc3ccccc3)no2)c1 (centres undefined) | inconclusive: 89.1 µM [inhibitor, single point] | –
32 | CSCCC(NC(N)=O)C(=O)NCc1ccc(Cl)cc1 (centres undefined) | inconclusive: 2.51 µM [inhibitor, partial curve, poor fit] | –
33 | CC(=O)OCC(=O)Nc1c(C)cc(C)cc1C | inconclusive: 56.2 µM [inhibitor, partial curve, poor fit] | –
34 | CC(C)NC(=O)CSc1ccccc1C(=O)NNC(=O)Cn1ccc(C(F)(F)F)n1 | inconclusive: 44.7 µM [inhibitor, partial curve] | –
35 | COc1cc2ccccc2cc1C(=O)NCCCN1CCOCC1 | inconclusive: 50.1 µM [inhibitor, partial curve] | –
36 | CC(NC(=O)Nc1ccc(Cl)cc1)c1ccc2c(c1)OCO2 (centres undefined) | inconclusive: 89.1 µM [inhibitor, single point] | –
37 | CCN(CC(=O)Nc1ccccc1C(F)(F)F)C(=O)CCOc1ccc(C)cc1 | inconclusive: 14.1 µM [inhibitor, partial curve, poor fit] | –
38 | Cc1ccc(N2NC(=O)/C(=C/C=C/c3ccco3)C2=O)cc1C | inconclusive: 31.6 µM [inhibitor, single point] | –
39 | CC(C)CN1CCNC(=O)C1CC(=O)NCCc1ccc(C(F)(F)F)cc1 (centres undefined) | inconclusive: 56.2 µM [inhibitor, partial curve, poor fit] | –
40 | Cc1cccc(NC(=O)CNC(=O)COc2cccnc2[N+](=O)[O-])c1C | – | inactive: -9% [at 2.33 µM]
41 | NC(=O)c1ccccc1NCC(=O)c1ccc(F)cc1 | inconclusive: 79.4 µM [inhibitor, single point] | –
42 | Cc1ccc2[nH]c(C(=O)O)c(NC(=O)[C@@H]3C[C@@H]3c3ccccc3)c2c1 | inconclusive: 50.1 µM [inhibitor, partial curve, poor fit] | –
43 | CCCc1nnc(NC(=O)C2CC(=O)N(CCc3ccc(F)cc3)C2)s1 (centres undefined) | inconclusive: 89.1 µM [inhibitor, single point] | –
44 | Cc1cc(C)n(C(=O)/C(C#N)=N/Nc2cc(Cl)cc(Cl)c2)n1 | inconclusive: 44.7 µM [inhibitor, partial curve, poor fit] | –
45 | CCCc1cc(=O)n2nc(N3CCC(C(=O)N4CCN(c5ccc(OC)cc5)CC4)CC3)sc2n1 | – | inactive: -34.4% [at 102 µM]
46 | O=C(OCC(=O)N1CCN(c2ccccc2)CC1)c1cccs1 | inconclusive: 70.8 µM [inhibitor, partial curve, poor fit] | –

Row | Compound | Potency | activity, negative = inhibition
47 | CCOC(=O)c1c(NC(=O)C2CC2)sc2c1CC(C)(C)OC2 | active: 35.5 µM | –
48 | CCNC(=S)N/N=C/c1cc(C)n(-c2ccc(Cl)cc2)c1C | inconclusive: 39.8 µM [inhibitor, partial curve, poor fit] | –
49 | CCOC(=O)CNC(=O)CSc1nnc(-c2ccccc2)n1Cc1ccco1 | inconclusive: 1.78 µM [inhibitor, partial curve, poor fit] | –
50 | Cc1ccc(NC(=O)C2CCN(c3nc4ccccc4nc3C(F)(F)F)CC2)cc1F | – | inactive: -1.07%
51 | COc1ccc(CCNC(=O)c2ccc(CNc3c(N4CCOCC4)c(=O)c3=O)cc2)cc1OC | inconclusive: 70.8 µM [inhibitor, partial curve, poor fit] | –
52 | CS(=O)(=O)c1ccc(S(=O)(=O)N2CCC(CO)(CCCc3ccccc3)CC2)cc1 | – | inactive: 18.5% [at 102 µM]
53 | COc1ccc(C(=O)Nc2nnc(S(=O)(=O)N3CCCCCC3)s2)cc1OC | inconclusive: 2.82 µM [inhibitor, full curve, poor fit] and inconclusive: 89.1 µM [inhibitor, single point] | –
54 | O=C1N(Cc2cccc(Cl)c2)C[C@@H]2C[C@@H](c3ccccn3)N3CCC[C@@]123 | active: 25.1 µM | –
55 | COc1ccc(-c2ccc3nnc(SCC(=O)N4CCCC4)n3n2)cc1 | – | inactive: 9.6% [at 102 µM]
56 | O=C(NC1CCCCCCC1)C1=COCCO1 | inconclusive: 28.2 µM [inhibitor, single point] | –
57 | O=C(O)COc1ccccc1C(Nc1ccccn1)c1cc(Cl)c2cccnc2c1O (centres undefined) | active: 7.94 µM | –
58 | CN1C(=O)Cc2cc(S(=O)(=O)Nc3ccc(Cl)cc3)ccc21 | inconclusive: 89.1 µM [inhibitor, single point] | –
59 | O=C1Nc2ccccc2Oc2cc([N+](=O)[O-])ccc21 | inconclusive: 39.8 µM [inhibitor, partial curve, poor fit] | –
60 | CC1CCCCC1NC(=O)/C(C#N)=C/c1ccccc1F (centres undefined) | – | inactive: 21.2%
61 | CC1(C)N([O-])C(c2ccccc2)=C[N+](=O)C1(C)C | inconclusive: 89.1 µM [inhibitor, single point] | –
62 | COC(=O)CC1C(=O)NCCN1C(=S)NC(=O)C(c1ccccc1)c1ccccc1 (centres undefined) | inconclusive: 39.8 µM [inhibitor, single point] | –
63 | O=[N+]([O-])c1ccc2nc(N3CCCC3)sc2c1 | inconclusive: 89.1 µM [inhibitor, single point] | –
64 | O=C(O)c1ccc(N2Cc3ccccc3C2)cc1O | active: 8.91 µM | –
65 | CCCN1C(=O)/C(=C/c2ccc(OCC(=O)OCC)cc2)NC1=S | inconclusive: 8.91 µM [inhibitor, partial curve] | –
66 | O=C(CCn1c(=O)[nH]c2ccsc2c1=O)N(CCc1ccccc1)Cc1ccccc1 | inconclusive: 89.1 µM [inhibitor, single point] | –
67 | CCN(CC)C(=O)/C(C#N)=C/c1cc(O)c(O)c([N+](=O)[O-])c1 | inconclusive: 7.08 µM [inhibitor, partial curve, poor fit] | –
68 | O=C(/C=C/c1ccc2c(c1)OCO2)Nc1c(C(=O)O)[nH]c2ccccc12 | active: 11.2 µM | –
69 | Cc1ccccc1N1C(=O)C(Oc2ccc(Cl)cc2)C1CNCC1CCCO1 (centres undefined) | inconclusive: 79.4 µM [inhibitor, partial curve, poor fit] | –
